Experimental findings from ChEMBL document CHEMBL1961873, “Compounds: GSK PKIS; Assays: Nanosyn kinase panel” (2012) are described below.

Each structure is given as a SMILES string. For some assays here: This list holds what a sample rich in strong results left over. The entries are a selection whose mix differs from that of the whole data set.

For test [1], the target named is T1, Serine/threonine-protein kinase TBK1 (Homo sapiens) (UniProt Q9UHD2).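 Note: values are mean inhibition of TBK1, screened as part of the GSK published kinase inhibitor set.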
T1 sequence (whole entry): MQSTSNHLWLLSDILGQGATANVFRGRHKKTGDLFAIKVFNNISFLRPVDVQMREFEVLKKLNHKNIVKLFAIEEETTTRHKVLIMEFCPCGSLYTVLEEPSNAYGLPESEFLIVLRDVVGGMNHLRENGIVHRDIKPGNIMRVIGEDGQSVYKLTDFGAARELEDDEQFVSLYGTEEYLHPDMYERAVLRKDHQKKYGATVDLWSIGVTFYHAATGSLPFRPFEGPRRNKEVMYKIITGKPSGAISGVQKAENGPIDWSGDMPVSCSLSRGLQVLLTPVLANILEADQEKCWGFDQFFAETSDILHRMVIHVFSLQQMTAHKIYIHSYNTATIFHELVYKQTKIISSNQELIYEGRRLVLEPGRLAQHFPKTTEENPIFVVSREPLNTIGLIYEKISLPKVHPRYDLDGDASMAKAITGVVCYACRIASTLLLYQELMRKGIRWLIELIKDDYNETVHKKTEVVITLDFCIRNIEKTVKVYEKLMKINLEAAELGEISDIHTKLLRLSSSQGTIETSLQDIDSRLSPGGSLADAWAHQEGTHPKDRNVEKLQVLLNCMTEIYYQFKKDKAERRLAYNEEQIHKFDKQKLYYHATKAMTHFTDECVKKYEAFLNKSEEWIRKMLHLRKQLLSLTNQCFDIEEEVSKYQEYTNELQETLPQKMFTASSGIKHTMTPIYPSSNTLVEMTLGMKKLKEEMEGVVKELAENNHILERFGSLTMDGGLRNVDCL
The conditions noted are these: at 1 µM.

Test [2] has as its target T2, Testis-specific serine/threonine-protein kinase 1 (Homo sapiens) (UniProt Q9BXA7).
T2 sequence (whole entry): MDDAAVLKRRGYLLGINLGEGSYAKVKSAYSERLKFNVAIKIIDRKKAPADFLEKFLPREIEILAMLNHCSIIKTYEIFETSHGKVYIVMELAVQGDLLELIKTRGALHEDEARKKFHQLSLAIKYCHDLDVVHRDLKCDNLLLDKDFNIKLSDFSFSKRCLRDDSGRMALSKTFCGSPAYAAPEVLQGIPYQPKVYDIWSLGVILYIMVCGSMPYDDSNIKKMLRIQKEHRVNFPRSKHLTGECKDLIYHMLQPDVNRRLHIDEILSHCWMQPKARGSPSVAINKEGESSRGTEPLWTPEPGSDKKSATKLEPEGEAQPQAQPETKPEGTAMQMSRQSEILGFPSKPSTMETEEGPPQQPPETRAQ
The conditions noted are these: at 0.1 µM.

Test [3] concerns the target T2, Testis-specific serine/threonine-protein kinase 1 (Homo sapiens). The conditions noted are these: at 1 µM.
Test [4] has as its target T3, Testis-specific serine/threonine-protein kinase 2 (Homo sapiens) (UniProt Q96PF2).
T3 sequence (whole entry): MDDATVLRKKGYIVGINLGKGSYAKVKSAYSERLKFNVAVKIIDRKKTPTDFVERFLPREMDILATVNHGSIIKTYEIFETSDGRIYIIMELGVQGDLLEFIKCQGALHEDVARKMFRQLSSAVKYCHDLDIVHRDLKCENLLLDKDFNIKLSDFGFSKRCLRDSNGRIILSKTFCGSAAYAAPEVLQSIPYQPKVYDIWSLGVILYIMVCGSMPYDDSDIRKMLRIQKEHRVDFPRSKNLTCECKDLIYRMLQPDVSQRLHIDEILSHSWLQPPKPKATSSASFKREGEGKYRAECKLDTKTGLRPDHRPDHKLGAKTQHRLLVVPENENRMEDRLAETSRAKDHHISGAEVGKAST
The conditions noted are these: at 0.1 µM.

The target of test [5] is T3, Testis-specific serine/threonine-protein kinase 2 (Homo sapiens). The note with it: at 1 µM.
Test [6] has as its target Casein kinase I isoform alpha (Homo sapiens) (UniProt P48729). The note with it: at 0.1 µM.
Sequence of UniProt P48729 (P48729 whole entry, looked up, canonical isoform): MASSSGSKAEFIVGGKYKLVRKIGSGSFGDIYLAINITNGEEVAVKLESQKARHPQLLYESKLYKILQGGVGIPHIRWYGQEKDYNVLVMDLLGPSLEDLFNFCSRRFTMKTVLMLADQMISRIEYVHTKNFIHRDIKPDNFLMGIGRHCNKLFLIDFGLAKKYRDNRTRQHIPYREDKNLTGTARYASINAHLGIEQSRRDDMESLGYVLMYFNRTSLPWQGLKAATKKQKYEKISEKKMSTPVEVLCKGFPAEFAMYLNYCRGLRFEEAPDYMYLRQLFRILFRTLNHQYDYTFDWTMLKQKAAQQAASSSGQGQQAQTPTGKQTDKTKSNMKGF
Test [7] shares this target. The note with it: at 1 µM.
Test [8] deals with Casein kinase I isoform gamma-1 (Homo sapiens) (UniProt Q9HCP0). The note with it: at 0.1 µM.
Sequence of UniProt Q9HCP0 (Q9HCP0 whole entry, looked up, canonical isoform): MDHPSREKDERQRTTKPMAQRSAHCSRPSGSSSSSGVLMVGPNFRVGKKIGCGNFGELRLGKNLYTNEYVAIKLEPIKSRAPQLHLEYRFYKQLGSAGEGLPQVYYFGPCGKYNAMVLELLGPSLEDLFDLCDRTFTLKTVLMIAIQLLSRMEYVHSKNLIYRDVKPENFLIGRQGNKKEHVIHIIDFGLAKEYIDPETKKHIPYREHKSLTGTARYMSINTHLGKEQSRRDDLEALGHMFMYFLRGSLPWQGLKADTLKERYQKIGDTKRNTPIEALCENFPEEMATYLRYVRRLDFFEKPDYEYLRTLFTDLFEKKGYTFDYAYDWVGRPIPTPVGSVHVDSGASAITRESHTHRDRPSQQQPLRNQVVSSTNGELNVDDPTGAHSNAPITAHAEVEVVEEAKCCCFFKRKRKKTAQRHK
For test [9] the target is unchanged. The note with it: at 1 µM.
For test [10], the target named is Casein kinase I isoform gamma-2 (Homo sapiens) (UniProt P78368). The conditions noted are these: at 0.1 µM.
Sequence of UniProt P78368 (P78368 whole entry, looked up, canonical isoform): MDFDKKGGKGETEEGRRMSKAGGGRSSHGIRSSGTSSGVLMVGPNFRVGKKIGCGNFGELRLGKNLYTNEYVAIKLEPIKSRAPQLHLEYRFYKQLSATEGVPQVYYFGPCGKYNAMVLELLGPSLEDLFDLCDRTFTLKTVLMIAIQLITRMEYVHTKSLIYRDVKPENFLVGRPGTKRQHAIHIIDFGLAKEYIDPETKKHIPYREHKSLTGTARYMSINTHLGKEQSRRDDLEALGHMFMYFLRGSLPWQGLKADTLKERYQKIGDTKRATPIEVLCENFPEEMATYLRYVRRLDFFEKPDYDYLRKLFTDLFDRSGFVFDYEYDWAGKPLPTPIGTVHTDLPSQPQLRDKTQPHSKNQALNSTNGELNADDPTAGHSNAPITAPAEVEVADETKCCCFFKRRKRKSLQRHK
For test [11] the target is unchanged. The conditions noted are these: at 1 µM.
Test [12] concerns the target Casein kinase I isoform gamma-3 (Homo sapiens) (UniProt Q9Y6M4). The conditions noted are these: at 0.1 µM.
Sequence of UniProt Q9Y6M4 (Q9Y6M4 whole entry, looked up, canonical isoform): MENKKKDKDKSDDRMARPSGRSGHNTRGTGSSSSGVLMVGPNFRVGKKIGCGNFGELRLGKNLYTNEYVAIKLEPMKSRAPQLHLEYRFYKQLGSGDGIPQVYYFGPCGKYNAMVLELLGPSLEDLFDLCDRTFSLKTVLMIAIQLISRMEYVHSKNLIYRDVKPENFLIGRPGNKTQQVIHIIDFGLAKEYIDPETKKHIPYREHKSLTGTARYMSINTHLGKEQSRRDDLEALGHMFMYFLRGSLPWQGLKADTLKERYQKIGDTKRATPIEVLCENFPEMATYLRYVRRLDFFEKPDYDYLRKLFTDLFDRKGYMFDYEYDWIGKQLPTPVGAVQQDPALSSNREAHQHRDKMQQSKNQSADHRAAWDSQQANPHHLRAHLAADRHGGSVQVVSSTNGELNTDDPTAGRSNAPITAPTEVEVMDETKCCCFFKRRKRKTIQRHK
Test [13] shares this target. The conditions noted are these: at 1 µM.
For test [14], the target named is Cyclin-dependent kinase 1 (Homo sapiens) (UniProt P06493). The conditions noted are these: at 0.1 µM.
Sequence of UniProt P06493 (P06493 whole entry, looked up): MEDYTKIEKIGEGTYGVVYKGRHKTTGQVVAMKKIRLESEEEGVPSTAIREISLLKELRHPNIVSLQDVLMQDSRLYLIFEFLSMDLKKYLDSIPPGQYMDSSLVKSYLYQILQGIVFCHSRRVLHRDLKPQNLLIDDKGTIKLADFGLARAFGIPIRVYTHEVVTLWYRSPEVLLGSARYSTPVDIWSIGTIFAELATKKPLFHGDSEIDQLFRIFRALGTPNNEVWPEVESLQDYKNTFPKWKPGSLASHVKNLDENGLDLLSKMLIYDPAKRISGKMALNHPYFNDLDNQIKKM
Test [15] shares this target. The conditions noted are these: at 1 µM.
Test [16] deals with Cyclin-dependent kinase 2 (Homo sapiens) (UniProt P24941). The note with it: at 0.1 µM.
Test [17] shares this target. The conditions noted are these: at 1 µM.
The target is the same in test [18]. The note with it: at 0.1 µM. The source holds these as a separate data set.
For test [19] the target is unchanged. The note with it: at 1 µM. This is another data set of the same source.
Test [20] addresses CDK3/Cyclin E (Homo sapiens) (UniProt P24864+Q00526). The conditions noted are these: at 0.1 µM.
Sequence of UniProt P24864 (P24864 whole entry, looked up): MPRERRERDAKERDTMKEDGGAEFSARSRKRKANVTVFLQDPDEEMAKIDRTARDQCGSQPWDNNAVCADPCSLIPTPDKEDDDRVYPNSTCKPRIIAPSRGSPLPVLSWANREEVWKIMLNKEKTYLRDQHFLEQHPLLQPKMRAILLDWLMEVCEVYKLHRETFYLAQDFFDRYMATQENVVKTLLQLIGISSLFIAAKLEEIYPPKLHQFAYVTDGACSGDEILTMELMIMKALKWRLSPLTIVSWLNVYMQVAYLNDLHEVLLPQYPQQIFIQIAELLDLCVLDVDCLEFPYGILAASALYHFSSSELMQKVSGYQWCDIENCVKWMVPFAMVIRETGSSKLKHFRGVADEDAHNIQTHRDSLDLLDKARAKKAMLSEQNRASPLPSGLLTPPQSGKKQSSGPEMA
Sequence of UniProt P24864 (Q00526 whole entry, looked up): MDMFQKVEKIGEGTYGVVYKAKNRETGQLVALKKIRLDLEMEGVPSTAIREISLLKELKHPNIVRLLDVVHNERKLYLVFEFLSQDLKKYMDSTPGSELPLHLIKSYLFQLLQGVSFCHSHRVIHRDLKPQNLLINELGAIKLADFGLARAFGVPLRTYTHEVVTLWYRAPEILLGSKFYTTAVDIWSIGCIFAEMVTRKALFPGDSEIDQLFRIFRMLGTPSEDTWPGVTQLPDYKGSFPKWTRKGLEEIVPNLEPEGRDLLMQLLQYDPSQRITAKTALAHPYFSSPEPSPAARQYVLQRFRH

The term inhibition denotes the relative decrease from the control value, in per cent. As to `O=C1NC(=O)C(c2ccccc2Cl)=C1Nc1cc(Cl)c(O)c(Cl)c1`, the inhibition in test [1] was determined as 6.6%; in [2] it was 3.01%; in test [3], 5.57%; in test [4] it was 1.49%; in test [5], 4.24%; in [6], 2.96%. For the same molecule, the inhibition was 2.34% in [7]; 3.19% in test [8]; 4.09% in [9]; 3.49% in [10]; 3.59% in test [11]; 3.24% in test [12]. Further, the inhibition in test [13] amounted to 3.77%; in [14] it was 0.18%; in test [15] it was 3.95%; in [16], 1.75%; in [17] it was 4.91%; in test [18] it was 3.39%. Moreover, the inhibition is 6.65% in [19] and 0.83% in test [20].
As to `Cc1cccc(Oc2nccc(-c3c(-c4ccc(F)cc4)ncn3C3CCNCC3)n2)c1C`, the inhibition in test [1] is 2%; in [2], 2.84%; in test [3] it was 4.08%; in test [4], 0.86%; in test [5], 1.22%; in test [6], 4.01%. The inhibition in test [7] is 17.9%; in test [8], 4.85%; in [9], 10.5%; in [10], 4.11%; in test [11] it was 8.38%; in test [12] it was 3.94%. Besides, the inhibition was determined as 15.4% in test [13]; 1.08% in [14]; 3.9% in [15]; 4.39% in test [16]; 6.7% in test [17]; 4.46% in test [18]. Also, the inhibition is 6.04% in test [19] and -0.24% in test [20].
As to `NC(=O)CCc1ccccc1Oc1nccc(-c2c(-c3ccc(F)cc3)ncn2C2CCNCC2)n1`, the inhibition was 2.87% in test [1]; 0.33% in test [2]; 0.07% in test [3]; -1.49% in [4]; -1.51% in test [5]; -0.1% in [6]. Further, the inhibition in test [7] is 6.15%; in [8], -0.12%; in test [9], 0.11%; in test [10], 0.21%; in [11], -0.2%; in test [12], 0.77%. Also, the inhibition in test [13] stood at 1.23%; in [14], 1.05%; in test [15], 1.24%; in test [16], 2.44%; in test [17] it was 0.11%; in test [18], 1.61%. In addition, the inhibition in test [19] came out at 0.62%; in test [20], 1.96%.
As for `Fc1ccc(Oc2nccc(-c3c(-c4ccc(F)cc4)ncn3C3CCNCC3)n2)cc1`, the inhibition in test [1] amounted to 4.08%; in test [2], 3.23%; in [3], 3.22%; in test [4], 1.2%; in test [5], 2.24%; in test [6], 5.04%. Besides, the inhibition in test [7] is 21.5%; in test [8], 0.33%; in test [9] it was 2.87%; in [10], 0.69%; in test [11], 2.77%; in [12], 0.63%. Further, the inhibition was 2.01% in test [13]; -0.91% in [14]; -1.43% in test [15]; -0.09% in [16]; -1.09% in test [17]; -0.76% in [18]. Also, the inhibition in test [19] is 0.82%; in test [20] it was -3.31%.
Regarding `Fc1ccc(-c2ncn(C3CCNCC3)c2-c2ccnc(Oc3cccc(F)c3)n2)cc1`, the inhibition amounted to 6.05% in test [1]; 4.27% in [2]; 4.36% in test [3]; 1.64% in test [4]; 2.19% in test [5]; 6.73% in test [6]. Further, the inhibition in test [7] was 31.8%; in test [8], 4.61%; in test [9] it was 9.25%; in [10], 3.64%; in [11], 6.47%; in test [12], 2.68%. Further, the inhibition in [13] was 7.42%; in test [14], 1.81%; in [15], -0.11%; in test [16] it was 2.74%; in test [17], 1.69%; in [18], 2.65%. The inhibition in test [19] was 5.6%; in test [20], -2.13%.
As for `CS(=O)(=O)c1ccc(Oc2nccc(-c3c(-c4ccc(F)cc4)ncn3C3CCNCC3)n2)cc1`, the inhibition in test [1] turned out to be 0.82%; in test [2] it was 4.91%; in test [3], 4.43%; in test [4], 2.7%; in test [5], 1.85%; in test [6] it was 3.95%. The inhibition in test [7] was 10.1%; in test [8] it was 3.96%; in [9], 5.6%; in test [10], 3.58%; in test [11], 4.83%; in [12], 2.91%. Further, the inhibition in test [13] was 4.08%; in [14], 0.13%; in [15] it was -1.68%; in [16] it was 0.67%; in test [17], 1.67%; in test [18], 0.53%. The inhibition is 1.85% in test [19] and -1.77% in test [20].
`COc1ccccc1Oc1nccc(-c2c(-c3ccc(F)cc3)ncn2C2CCNCC2)n1`: the inhibition was 5.91% in test [1]; 3.26% in test [2]; 4.04% in test [3]; 1.91% in test [4]; 2.51% in [5]; 4.7% in test [6]. Moreover, the inhibition in test [7] was 19.5%; in [8], 4.1%; in [9], 8.25%; in test [10] it was 3.57%; in test [11], 7.18%; in test [12], 3.7%. Moreover, the inhibition stood at 11.1% in [13]; 2% in [14]; 5.6% in test [15]; 3.78% in test [16]; 4.53% in test [17]; 6.32% in test [18]. Besides, the inhibition in test [19] was 8.92%; in test [20], -1.17%.
